According to PMC4336329 (PLoS ONE, 2015):
Out of some 310,000 compounds screened, about 14,000 (4.5%) showed an effect of 50% or more. Effects have a minus sign here. This is one part of the list.

molecular target: human ether-à-go-go-related gene (hERG) potassium channel (human, UniProt Q12809); assay: primary screen, population patch clamp on CHO cells stably expressing hERG
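Note: peak tail current of the secondary pulse compared with the same well before compound.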

human ether-à-go-go-related gene (hERG) potassium channel, sequence (Q12809 whole entry, looked up): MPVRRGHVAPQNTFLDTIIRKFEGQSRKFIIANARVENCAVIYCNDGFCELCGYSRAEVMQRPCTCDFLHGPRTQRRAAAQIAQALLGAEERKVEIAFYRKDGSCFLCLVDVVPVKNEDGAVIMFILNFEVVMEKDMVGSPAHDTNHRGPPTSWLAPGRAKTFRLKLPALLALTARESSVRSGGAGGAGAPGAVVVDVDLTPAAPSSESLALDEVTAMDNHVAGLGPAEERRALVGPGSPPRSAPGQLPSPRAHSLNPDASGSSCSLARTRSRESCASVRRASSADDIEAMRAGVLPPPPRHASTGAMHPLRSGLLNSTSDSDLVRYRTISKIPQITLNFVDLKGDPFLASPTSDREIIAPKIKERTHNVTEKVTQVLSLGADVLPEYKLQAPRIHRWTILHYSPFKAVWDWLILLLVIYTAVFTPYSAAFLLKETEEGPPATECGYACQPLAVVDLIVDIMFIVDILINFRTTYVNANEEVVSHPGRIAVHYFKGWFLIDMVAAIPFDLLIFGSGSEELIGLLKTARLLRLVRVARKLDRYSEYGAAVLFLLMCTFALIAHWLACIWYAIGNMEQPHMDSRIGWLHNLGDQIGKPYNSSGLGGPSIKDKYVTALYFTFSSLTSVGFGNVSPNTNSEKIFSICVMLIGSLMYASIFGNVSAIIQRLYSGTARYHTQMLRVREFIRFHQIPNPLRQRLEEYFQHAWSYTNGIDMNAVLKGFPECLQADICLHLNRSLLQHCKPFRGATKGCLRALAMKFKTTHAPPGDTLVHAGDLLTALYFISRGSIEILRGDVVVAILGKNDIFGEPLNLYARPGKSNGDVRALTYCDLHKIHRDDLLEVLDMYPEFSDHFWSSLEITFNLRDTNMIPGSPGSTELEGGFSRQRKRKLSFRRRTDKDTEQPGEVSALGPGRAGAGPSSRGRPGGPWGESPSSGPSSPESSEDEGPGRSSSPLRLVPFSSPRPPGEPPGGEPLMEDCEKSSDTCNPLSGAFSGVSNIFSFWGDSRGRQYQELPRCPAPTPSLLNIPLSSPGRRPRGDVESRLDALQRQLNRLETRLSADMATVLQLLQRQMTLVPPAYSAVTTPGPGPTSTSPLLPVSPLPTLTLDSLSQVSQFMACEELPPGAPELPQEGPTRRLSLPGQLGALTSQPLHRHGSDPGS

| SMILES | hERG current change (%, negative = inhibition) at 10uM [%] |
| --- | --- |
| CN(Cc1ccccc1)C(=S)NC(=O)c1ccc(-c2ccccc2)cc1 | 19.8 |
| Nc1nc(SCC(=O)N2CCN(c3ccccc3)CC2)n[nH]1 | 19.5 |
| O=C(C1CCN(S(=O)(=O)c2ccccc2)CC1)N1CCOCC1 | -10.3 |
| O=S(=O)(c1cc(F)ccc1F)N1CCN(c2ccccn2)CC1 | -0.384 |
| Cc1ccc(NC(=O)CCC2CC(C)(C)OC2=O)cc1 (centres unmarked) | 23.6 |
| COc1cccc(NC(=O)NNC(=O)C(C)Oc2ccc3ccccc3c2)c1 (centres unmarked) | 4.48 |
| COc1ccc(Cl)cc1NC(=S)N1CC(C)OC(C)C1 (centres unmarked) | 2.89 |
| COc1ccc(OC)c(NC(=O)c2ccc(NS(C)(=O)=O)cc2)c1 | -17.8 |
| Fc1ccc(NC(=S)NCc2cccnc2)cc1 | 13.1 |
| Cc1ccc(C)c(-c2cc(C(=O)Nc3cccc(C(=O)O)c3)c3ccccc3n2)c1 | 20.3 |
| CC(=O)c1c(-c2ccc(Cl)cc2Cl)noc1C | 9.37 |
| CCC(C)CCN1C(N(C)C)=NC[C@@H]1C (some centres unmarked) | 15.3 |
| Cn1c(=O)c(C(=O)COC(=O)c2cc(-c3ccco3)nc3ccccc23)c(N)n(CC2CC2)c1=O | -5.15 |
| Cc1ccc(C(C)NC(=O)C2CCCO2)cc1C (centres unmarked) | 19.1 |
| O=C(NCC1CCCO1)c1cc2ccccc2o1 (centres unmarked) | 18.4 |
| Cc1nn(C)c(C)c1NC(=O)COc1ccc(Cl)cc1Br | -10.5 |
| CCC(C(=O)N1CCN(c2ncccn2)CC1)c1ccccc1 (centres unmarked) | -0.742 |
| COc1ccc(C2/C(=C(/O)c3ccc(Cl)cc3)C(=O)C(=O)N2CCN2CCOCC2)c(OC)c1 (centres unmarked) | -2.66 |
| Cc1ccc(C2C3CN(C(C)C)CC=C3C(C#N)=C(N)C2(C#N)C#N)cc1 (centres unmarked) | -23.1 |
| Cc1[nH]c2ccccc2c1-c1ccc(Cl)nn1 | 20.5 |

| SMILES | hERG current change (%, negative = inhibition) at 10uM [%] |
| --- | --- |
| O=C(O)c1cnn2cc(-c3[nH]ncc3[N+](=O)[O-])cnc12 | 5.14 |
| CC(C)Nc1nc(N)c(C(=O)C23CC4CC(CC(C4)C2)C3)s1 | -0.879 |
| Cc1ccc(OCC(=O)NNC(=O)CCc2ccccc2)c(Br)c1 | 10 |
| CC(C)c1ccc(C(C)NC(=O)C2CCCC2)cc1 (centres unmarked) | -2.72 |
| COc1nc(C#N)nc(N(C)C)n1 | -7.09 |
| CCN(CC)C(=N)/C(C#N)=N/Nc1ccc(C)cc1 | -56.6 |
| COc1ccccc1NC(=S)NCCc1ccc(F)cc1 | 1.82 |
| Nc1nc2nc(-c3ccc(Cl)cc3)cc(C(F)(F)F)n2n1 | 11.6 |
| CCN1c2ccccc2NC2C1C(C(C)=O)C(=O)N2c1ccc(Cl)cc1 (centres unmarked) | -8.55 |
| Cc1cc2ccccc2c(=O)n1CC(=O)NCC(=O)N(C)C1CCCCC1 | 4.06 |
| CCCn1c(SCC(=O)NC(C)C)nc2sc3c(c2c1=O)CCC3 | 15.5 |
| Cn1c(SCC(=O)N2CCN(c3ccccc3)CC2)nnc1-c1ccccc1 | -11.2 |
| CC(Oc1ccccc1)C(=O)Nc1ccccc1O (centres unmarked) | 17 |
| CCN(CC(=O)NC1CCS(=O)(=O)C1)C(=O)c1ccc(OC)c([N+](=O)[O-])c1 (centres unmarked) | 12 |
| Cc1cc(NC(=O)CSc2ccc3nnc(-c4ccc(F)cc4)n3n2)no1 | 1.2 |
| CCN1CC(CNCc2cn(-c3ccc(OC)cc3)nc2-c2ccccc2Cl)CC1=O (centres unmarked) | -24.4 |
| Cc1sc2ncnc(OCC(=O)NC(C)C)c2c1C | 6.65 |
| Cn1c(C(=O)N2CCCC(C(=O)NCc3cccs3)C2)cc2sccc21 (centres unmarked) | -16.1 |
| CC(=O)n1cc([C@@H]2C=C(C(=O)N3CCOCC3)O[C@H](OCCCCO)C2)c2ccccc21 | -51.6 |
| N#CCC(=O)Nc1ccc(C(=O)NCC(c2ccco2)N2CCCCC2)cc1 (centres unmarked) | 5.07 |

| SMILES | hERG current change (%, negative = inhibition) at 10uM [%] |
| --- | --- |
| Cc1nc2cc(Cl)c(Cl)cc2n1CCCO | -7.59 |
| CSc1cccc(N2CC(C(=O)Nc3ccccc3N3CCCC3)CC2=O)c1 (centres unmarked) | -27.4 |
| Cc1ccc(C)c(S(=O)(=O)N=Nc2c(O)[nH]c3ccccc23)c1 | 57.5 |
| O=C(CN1CCC(n2cnc3cc(F)ccc32)CC1)Nc1ccccc1Br | -87.8 |
| CC(C)c1ccc(OC(=O)c2cccc(S(=O)(=O)N3CCN(C)CC3)c2)cc1 | 14.2 |
| COc1ccc(CC(=O)Nc2nc3ccccc3[nH]2)cc1 | 5.36 |
| C/C(CC(=O)Nc1ccc([N+](=O)[O-])cc1)=N\NC(=O)c1ccccc1[N+](=O)[O-] | 8.67 |
| N#CC(C#N)=NNc1ccc([N+](=O)[O-])cc1 | -2.55 |
| Cc1ccc([N+](=O)[O-])cc1/C=N/Nc1nnnn1-c1ccccc1 | -7.28 |
| COc1ccc(CN2CN(c3ccc(Cl)cc3)C(=O)N(n3cnnc3)C2)cc1 | -38.6 |
| O=S(=O)(/C=C/c1ccccc1)Nc1ccc(N2CCOCC2)cc1 | -18.4 |
| O=C(/C=C(\O)c1ccccc1)C(=O)NNC(=O)c1ccccc1[N+](=O)[O-] | 17 |
| COC(=O)c1ccc(N2CCOCC2)c(NC(=O)Nc2cccc(OC)c2)c1 | -20.4 |
| CC(=O)Nc1sc(C)c(C)c1C(=O)Nc1ccc(C)cc1 | 8.19 |
| Cc1ccc(N(Cc2ccco2)C(=O)c2ccc(N3CCCCC3)c([N+](=O)[O-])c2)cc1 | -4.74 |
| CC1CN(C(=O)CN2C(=O)NC3(CCCCCCC3)C2=O)CC(C)O1 (centres unmarked) | 9.22 |
| CC(C)C(=O)Nc1nnc(S(=O)(=O)N(C)c2ccc(Cl)cc2)s1 | 7.58 |
| CCCCc1ccc(NC(=O)COCC)cc1 | -3.7 |
| Cl.NCCc1cnc[nH]1 | 16.6 |
